# About 540 (0.36%) of roughly 150,000 compounds showed an effect of 50% or more. Some of the results follow.
# Tested on: Plasmodium falciparum
# Assay: Primary screen in NF54 nanoGlo assay, in single point, at 2uM, 72h; a lower Z score goes with more inhibition
# Format: functional, Erythrocyte
# Details: timepoint 72 hour
Compound,% Inhibition,Z score
CN1CC[C@H](NC(=O)Nc2ccc(N3CCOCC3)nc2)C1,-13%,2.43
CC1CCCN(C(=O)c2ccc(C3(C)NC(=O)NC3=O)cc2)C1 (centres undefined),30%,-3.35
Fc1ccc(-c2nc(-c3ccc4nncn4c3)no2)cc1F,-16%,2.78
COc1ccc(C(=O)Nc2ccc(-c3c(C4CC4)nn(-c4cccc(F)c4)c3OC(C)=O)cc2)cc1,-13%,1.42
CC(C)n1ncc(C(=O)NC23CCN(CC2)C3)c1Br,-11%,1.15
CC(=O)N[C@@H]1C[C@H](CC(C)C)O[C@H](c2c[nH]nc2C2CCCCC2)C1,-12%,1.14
Cc1cc(NC(=O)CC[C@H]2CCCO2)n(C)n1,0%,-0.05
CC1CNCCN1C(=O)CCC1NC(=O)N(c2ccc(Cl)c(Cl)c2)C1=O (centres undefined),-7%,1.4
COc1ccc([C@@H]2CCCN2C(=O)c2ccn(C)c(=O)c2)cc1OC,-2%,0.43
COC(=O)Nc1ccc(NCc2c(C)nn(C)c2C)cc1F,-15%,1.73
Cc1noc(C)c1S(=O)(=O)NCC1(N(C)C)CCCC1,-1%,0.28
CN1CCC2CCN(C(=O)NCc3ccccc3OC3CCC3)C2C1 (centres undefined),4%,-0.6
CC(CCNS(=O)(=O)c1ccccc1)NC(=O)C1CCCOC1 (centres undefined),-7%,1.38
COc1cccc(Nc2ccc(N3C(=O)N[C@@](C)(CCF)C3=O)nc2)c1,-2%,0.37
COc1cc(NC(=O)N2CCC[C@H](c3nc(-c4ccccc4)c[nH]3)C2)cc(OC)c1,-3%,0.46
Cc1nc(-c2sccc2S(=O)(=O)N2CCCC2)n(CCO)n1,4%,-0.49
COc1ccc(C(=O)N2CCC3(CC2)OC[C@@H](C(=O)NCc2ccccc2)N3C(=O)c2ccccc2)cc1,12%,-1.8
OC1CN(c2ccc(-c3nc(-c4ccccc4F)no3)cn2)C1,-18%,2.78
COC(=O)CN1C(=O)C2(CCN(C(=O)c3cscn3)CC2)Nc2ccccc21,3%,-0.4
O=C(NCCc1ccc(-c2ccsc2)s1)C1CCOCC1,2%,-0.34
CS(=O)(=O)N1CCC[C@H](c2nnc(-c3ccsc3)o2)C1,-18%,2.04

Compound,% Inhibition,Z score
COc1cc(Cl)ccc1C(=O)N1CCC(c2nc(CNC(C)=O)cs2)CC1,-9%,1.08
Cc1cc(S(=O)(=O)NCCN2CC3CCC(C2)O3)sc1Cl,-2%,0.34
CC(C)N(C)C(=O)Nc1ccncc1F,0%,-0.02
O=C(OC1CCN(C(=O)c2ccccc2F)CC1)c1cscn1,1%,-0.1
O=C1C2C(C(=O)N1c1ccc(Oc3cccc4ccccc34)cc1)C1(Br)c3ccccc3C2(Br)c2ccccc21 (centres undefined),-6%,0.69
O=C1CCc2cc(S(=O)(=O)N3CCn4nccc4C3)ccc2N1,-11%,1.65
CC(C)Cc1noc(CNC(=O)NCc2ccco2)n1,5%,-0.65
COc1cc(OC)cc(C2C(S(=O)(=O)NC3CCCCC3)CON2C)c1 (centres undefined),4%,-0.77
C[C@@H](c1ccon1)N(C)Cc1cnc2c(-c3ccccc3)cnn2c1,7%,-0.99
O=S(=O)(c1cc(F)ccc1NCCN1CC=CCC1)C(F)(F)F,5%,-0.94
O=C(N[C@H]1CC12CCCCC2)C1CCCC1,-12%,2.02
Cc1ccc(S(=O)(=O)NCc2cccc(C(=O)N3CCCC3)c2)s1,-37%,4.28
O=C(NCCc1nccs1)N[C@H]1CCCC[C@H]1CC(F)(F)F,-8%,1.17
CCc1nn2c(c1-c1ccc(C)c(S(=O)(=O)N3CCc4ccccc4C3)c1)NC(=O)CCC2=O,-8%,0.99
CC#CCN(C)C(=O)Nc1ccc(F)cn1,-4%,0.49
O[C@H]1[C@H](n2cc(-c3ccccc3F)nn2)c2ccccc2C12CCNCC2,-3%,0.69
NC(=O)C1CCC(NC(=O)CC2CC2)CC1 (centres undefined),0%,0.04
C[C@@H](CN1CC(c2ccccc2)(c2ccccc2)CCC1=O)N1CCN(C)CC1,-5%,1.06
CNC(=O)CN1c2ccccc2C(=O)N(C)[C@@H]1c1ccsc1,5%,-0.96
O=C(Cc1ncccc1F)N1CC2(CCC2)[C@@H]1C1CC1,-11%,1.25
Cc1ccc(Oc2c(CN(CC(O)COC(C)(C)C)CC3CCCO3)c(-c3ccccc3)nn2C)cc1 (centres undefined),-7%,0.81

# — ChEMBL document CHEMBL4888484, “Replenishing the malaria drug discovery pipeline: Screening and hit evaluation of the MMV Hit Generation Library 1 (HGL1) against asexual blood stage Plasmodium falciparum ,using a nano luciferase reporter read-out” (2022)
